Screen size: about 310,000 compounds; about 14,000 (4.5%) showed an effect of 50% or more. Effects have a minus sign here. The list shows a part of the results.
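Also: peak tail current of the secondary pulse compared with the same well before compound.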

For this test, the target named is human ether-à-go-go-related gene (hERG) potassium channel (human, UniProt Q12809). The experiment in a line: primary screen, population patch clamp on CHO cells stably expressing hERG.
Chain of human ether-à-go-go-related gene (hERG) potassium channel (Q12809 whole entry, looked up): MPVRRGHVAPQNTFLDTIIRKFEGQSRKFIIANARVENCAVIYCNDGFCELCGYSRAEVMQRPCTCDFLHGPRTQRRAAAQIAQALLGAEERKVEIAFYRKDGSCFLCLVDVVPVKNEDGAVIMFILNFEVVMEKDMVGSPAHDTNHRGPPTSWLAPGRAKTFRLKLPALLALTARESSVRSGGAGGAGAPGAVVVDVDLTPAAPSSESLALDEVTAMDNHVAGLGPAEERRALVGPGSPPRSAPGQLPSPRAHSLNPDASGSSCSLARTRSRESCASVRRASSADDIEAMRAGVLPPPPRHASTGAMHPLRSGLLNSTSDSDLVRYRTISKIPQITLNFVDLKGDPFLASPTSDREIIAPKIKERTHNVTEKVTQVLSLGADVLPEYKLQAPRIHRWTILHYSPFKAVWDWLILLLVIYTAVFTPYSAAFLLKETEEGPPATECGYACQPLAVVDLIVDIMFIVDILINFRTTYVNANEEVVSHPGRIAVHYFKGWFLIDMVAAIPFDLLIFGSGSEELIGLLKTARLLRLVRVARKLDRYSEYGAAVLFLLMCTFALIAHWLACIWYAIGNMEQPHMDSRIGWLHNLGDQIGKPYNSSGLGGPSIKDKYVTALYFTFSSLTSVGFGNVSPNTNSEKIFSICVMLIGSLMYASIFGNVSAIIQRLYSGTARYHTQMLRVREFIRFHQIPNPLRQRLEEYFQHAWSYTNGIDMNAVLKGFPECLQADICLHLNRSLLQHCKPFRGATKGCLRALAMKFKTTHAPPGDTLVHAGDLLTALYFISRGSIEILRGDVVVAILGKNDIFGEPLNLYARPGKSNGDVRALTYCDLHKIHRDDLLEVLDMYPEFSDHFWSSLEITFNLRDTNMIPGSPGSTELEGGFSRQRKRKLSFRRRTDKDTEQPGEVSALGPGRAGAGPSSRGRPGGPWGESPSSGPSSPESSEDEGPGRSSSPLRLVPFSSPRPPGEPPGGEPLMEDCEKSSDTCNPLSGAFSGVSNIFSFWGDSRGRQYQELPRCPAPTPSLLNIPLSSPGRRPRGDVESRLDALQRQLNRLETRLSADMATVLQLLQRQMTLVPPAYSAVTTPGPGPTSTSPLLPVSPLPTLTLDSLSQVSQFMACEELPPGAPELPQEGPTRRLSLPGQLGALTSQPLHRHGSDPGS
Turning to `CCn1cnc2c(cnn2-c2ccccc2)c1=O`, the “hERG current change (%, negative = inhibition) at 10uM” value is reported as 11.8%. In the case of `O=C(Nc1ccncc1)c1cc(-c2cccc(Br)c2)nc2ccccc12`, the “hERG current change (%, negative = inhibition) at 10uM” value was found to be 9.58%.

As to `O=C(CS(=O)(=O)c1ccccc1)Nc1nnc(-c2cccs2)o1`, the “hERG current change (%, negative = inhibition) at 10uM” value is given as 8.9%. As to `O=C(O)COc1ccc(/C=C/c2ccc3cccc([N+](=O)[O-])c3n2)cc1`, the “hERG current change (%, negative = inhibition) at 10uM” value is recorded as 9.35%.

On to `COc1ccc(C2=NOC(C)(c3nnc(-c4ccc(Cl)cc4)o3)C2)cc1` (centres unmarked), for which the “hERG current change (%, negative = inhibition) at 10uM” value is reported as -27.1%. With `O=C(NCc1ccccn1)Nc1ccccc1F` the figure was 13.5%; with `CC(CCc1ccccc1)N1CCN(C)CC1` (centres unmarked), -20.4%; with `Cc1ccccc1CC1(CO)CCCN(C(=O)Cc2c(F)ccc(F)c2F)C1` (centres unmarked), -0.736%. With `CCOC(=O)CNC(=O)CSc1nnc(NC(=O)c2ccccc2Cl)s1` the figure was 21.4%; with `O=S(=O)(N1CCCCCC1)N1CCN(S(=O)(=O)N2CCCCC2)CC1`, -2.48%. With `CCOC(=O)N1CCN(C(=O)C2CCN(S(=O)(=O)c3ccc(C)cc3)CC2)CC1` the figure was -25.8%; with `CCCCCCC(=O)Nc1nnc(CC)s1`, -2.86%. `O=C1CCCc2ccccc2N1Cc1ccc(F)cc1`: the “hERG current change (%, negative = inhibition) at 10uM” value is on record as 15.4%. Under `CCC(C)CN1CCC(CO)(Cc2ccccc2Cl)CC1` (centres unmarked) stands -30%; under `CC(C)Nc1nc(NC(C)(C)C)nc(Oc2ccc(=O)n(C)n2)n1`, -15.3%. Consider `COc1cc(/C=N/NS(=O)(=O)c2ccc(C)cc2)ccc1OCc1ccc(C(=O)O)cc1`, for which the “hERG current change (%, negative = inhibition) at 10uM” value was 0.853%. Under `CCOC(=O)C(=O)Nc1ccc(F)cc1` stands 13.3%; under `CCCn1c(SCC(=O)Nc2c(CC)cccc2CC)nnc1C(C)C`, 13.1%.

Consider `Cc1cccc(C)c1N(CC(=O)N/N=C/c1cc(Br)c(C)o1)S(C)(=O)=O`, for which the “hERG current change (%, negative = inhibition) at 10uM” value is -2.24%. As to `CCOC(=O)C1=C(C)N(C)C(C)=C(C(=O)OCC)C1c1ccccc1`, the “hERG current change (%, negative = inhibition) at 10uM” value is listed as 9.76%. With `CCC(CC)c1nc(C#N)c(NC(C)c2ccccc2)o1` (centres unmarked) the figure was -3.77%. With `COc1ccc(NC(=O)CSc2nccn2Cc2ccccc2)c(OC)c1` the figure was -6.64%; with `CC1CCCC(C)N1S(=O)(=O)c1ccc(S(=O)(=O)NCCc2ccncc2)cc1` (centres unmarked), -7.78%. Take `Cc1ccn(CC(=O)N2CCCC(N3CCN(Cc4ccc5c(c4)OCO5)CC3)C2)n1` (centres unmarked): the “hERG current change (%, negative = inhibition) at 10uM” value is reported as -5.29%. Under `O=C(Nc1ccc(Cl)cc1)Nc1nnc(SCc2ccc(Cl)cc2)s1` stands 6.78%; under `O=Cc1ccc(-c2ccc(F)cc2)o1`, 0.135%. With `Cc1cccc(-n2c(C)nc3cc(C(=O)NCC4CCCO4)ccc32)c1` (centres unmarked) the figure was -4.72%; with `COCC(C)Nc1nc(C)c(C(C)=O)s1` (centres unmarked), 13.8%; with `Cc1cc(C)n(C(=O)CN2C(=O)CCC2=O)n1`, 20.5%. With `O=C(O)c1ccccc1C(=O)N1CCN(c2ccccc2)CC1` the figure was 7.06%; with `NC(=NC(=O)c1ccccc1)N1CCN(C(c2ccccc2)c2ccccc2)CC1`, 9.74%; with `Cc1ccc(SCCC(=O)OC(C(=O)NC(N)=O)C(C)C)cc1` (centres unmarked), 2.66%.

Consider `COc1cc(C(=O)N2CCN(C(=O)C3COc4ccccc4O3)CC2)cc(OC)c1OC` (centres unmarked), for which the “hERG current change (%, negative = inhibition) at 10uM” value was -27.9%. For `CC(=O)Oc1ccc(N(C(C)=O)S(=O)(=O)c2cccs2)cc1`, the “hERG current change (%, negative = inhibition) at 10uM” value stood at 2.49%. With `CCOc1ccc2[nH]c(=O)c(CN(Cc3ccc(C)cc3)C(=O)N3CCCC3)cc2c1` the figure was 0.145%. Under `CC1=C(C(N)=O)C(c2ccc(C)o2)C(C(N)=O)=C(C)N1` stands 13%. Under `O=C1c2ccccc2C(=O)N1CCCc1cn(C[C@H]2CC[C@@H]([C@@H]3CC[C@H](Cn4cc(CCCN5C(=O)c6ccccc6C5=O)nn4)O3)O2)nn1` stands -23.8%.

In the case of `O=C(Nc1cc(=O)[nH]c2nc(-c3ccccc3)nn12)c1ccccc1Cl`, the “hERG current change (%, negative = inhibition) at 10uM” value is reported as 15.3%. For the compound `CCOc1cc(C(=O)Nc2ccc(N3CCN(S(C)(=O)=O)CC3)cc2)cc(OCC)c1OCC`, the “hERG current change (%, negative = inhibition) at 10uM” value was 3.94%. With `COc1cccc(=O)c2c(C)oc(C)c12` the figure was 3.11%; with `COc1cc(CC(NC(C)=O)C(=O)NC2CCN(C(=O)Nc3ccc(C)cc3)CC2)cc(OC)c1` (centres unmarked), -5.62%. Under `Cc1cccc(N2CCN(C(=O)C3CCN(S(=O)(=O)N4CCOCC4)CC3)CC2)c1C` stands -44.3%; under `COc1cc(C(=O)Nc2ccc(S(=O)(=O)Nc3onc(C)c3C)cc2)cc(OC)c1OC`, 4.29%. Take `COc1cccc(NC(=O)CN(C)C(C)C(=O)Nc2cc([N+](=O)[O-])ccc2Cl)c1` (centres unmarked): the “hERG current change (%, negative = inhibition) at 10uM” value is recorded as -19.5%. Under `COc1ccc(OC)c(NC(=O)CCN2CCC(C)CC2)c1.Cl` stands 8.36%. With `CC(C)c1ccc(CNC(=O)CSCC(=O)Nc2ccc3ccccc3c2)cc1` the figure was 7.23%; with `Cc1ccc(C(=O)NC(C)c2ccc(-n3ccnc3)cc2)cc1S(=O)(=O)N1CCOCC1` (centres unmarked), -65.1%; with `COC(=O)C(NC(C)=O)(Nc1nc2c(s1)CCCC2)C(F)(F)F` (centres unmarked), -4.29%. With `O=C(CNC(c1ccccc1)c1ccccc1)Nc1ccccc1F` the figure was 15.6%; with `Cc1ccc(-n2ncc(C(=O)N3CCN(C(=O)c4ccco4)CC3)c2-n2cccc2)cc1`, -27.4%.

Turning to `CC(C)Sc1nc2ccc(N3C(=O)C4CCCCC4C3=O)cc2s1` (centres unmarked), the “hERG current change (%, negative = inhibition) at 10uM” value is -3.65%.

`COCCNC(=O)CCCn1c(=O)c2ccccc2n(Cc2cccc([N+](=O)[O-])c2)c1=O`: the “hERG current change (%, negative = inhibition) at 10uM” value is reported as -26.3%. Under `CCCNC(=S)Nc1ccc2nc(-c3ccccn3)c(-c3ccccn3)nc2c1` stands -7.39%; under `COCCCNc1nc2ccccc2nc1NS(=O)(=O)c1ccc(OC)cc1`, 17.2%; under `Cc1ccc(-c2csc(NC(=O)c3cccs3)n2)cc1`, 17.5%. In the case of `C=C(C)c1cccc(C(C)(C)NC(=O)Nc2ccc(C)cn2)c1`, the “hERG current change (%, negative = inhibition) at 10uM” value is -25.7%.

For the origin of these results see publication PMC4336329 (PLoS ONE, 2015).
